Test results as given in publication PMC10442006.
No constants are given. Whether binding was seen depends on the method and setting. Some entries that bind do so weakly or less than the wild type. Sequences can lack the tags named with a protein.

Protein sequences, listed by entry. Tags and fused reporters are not part of them.
UniProt A4GSN8: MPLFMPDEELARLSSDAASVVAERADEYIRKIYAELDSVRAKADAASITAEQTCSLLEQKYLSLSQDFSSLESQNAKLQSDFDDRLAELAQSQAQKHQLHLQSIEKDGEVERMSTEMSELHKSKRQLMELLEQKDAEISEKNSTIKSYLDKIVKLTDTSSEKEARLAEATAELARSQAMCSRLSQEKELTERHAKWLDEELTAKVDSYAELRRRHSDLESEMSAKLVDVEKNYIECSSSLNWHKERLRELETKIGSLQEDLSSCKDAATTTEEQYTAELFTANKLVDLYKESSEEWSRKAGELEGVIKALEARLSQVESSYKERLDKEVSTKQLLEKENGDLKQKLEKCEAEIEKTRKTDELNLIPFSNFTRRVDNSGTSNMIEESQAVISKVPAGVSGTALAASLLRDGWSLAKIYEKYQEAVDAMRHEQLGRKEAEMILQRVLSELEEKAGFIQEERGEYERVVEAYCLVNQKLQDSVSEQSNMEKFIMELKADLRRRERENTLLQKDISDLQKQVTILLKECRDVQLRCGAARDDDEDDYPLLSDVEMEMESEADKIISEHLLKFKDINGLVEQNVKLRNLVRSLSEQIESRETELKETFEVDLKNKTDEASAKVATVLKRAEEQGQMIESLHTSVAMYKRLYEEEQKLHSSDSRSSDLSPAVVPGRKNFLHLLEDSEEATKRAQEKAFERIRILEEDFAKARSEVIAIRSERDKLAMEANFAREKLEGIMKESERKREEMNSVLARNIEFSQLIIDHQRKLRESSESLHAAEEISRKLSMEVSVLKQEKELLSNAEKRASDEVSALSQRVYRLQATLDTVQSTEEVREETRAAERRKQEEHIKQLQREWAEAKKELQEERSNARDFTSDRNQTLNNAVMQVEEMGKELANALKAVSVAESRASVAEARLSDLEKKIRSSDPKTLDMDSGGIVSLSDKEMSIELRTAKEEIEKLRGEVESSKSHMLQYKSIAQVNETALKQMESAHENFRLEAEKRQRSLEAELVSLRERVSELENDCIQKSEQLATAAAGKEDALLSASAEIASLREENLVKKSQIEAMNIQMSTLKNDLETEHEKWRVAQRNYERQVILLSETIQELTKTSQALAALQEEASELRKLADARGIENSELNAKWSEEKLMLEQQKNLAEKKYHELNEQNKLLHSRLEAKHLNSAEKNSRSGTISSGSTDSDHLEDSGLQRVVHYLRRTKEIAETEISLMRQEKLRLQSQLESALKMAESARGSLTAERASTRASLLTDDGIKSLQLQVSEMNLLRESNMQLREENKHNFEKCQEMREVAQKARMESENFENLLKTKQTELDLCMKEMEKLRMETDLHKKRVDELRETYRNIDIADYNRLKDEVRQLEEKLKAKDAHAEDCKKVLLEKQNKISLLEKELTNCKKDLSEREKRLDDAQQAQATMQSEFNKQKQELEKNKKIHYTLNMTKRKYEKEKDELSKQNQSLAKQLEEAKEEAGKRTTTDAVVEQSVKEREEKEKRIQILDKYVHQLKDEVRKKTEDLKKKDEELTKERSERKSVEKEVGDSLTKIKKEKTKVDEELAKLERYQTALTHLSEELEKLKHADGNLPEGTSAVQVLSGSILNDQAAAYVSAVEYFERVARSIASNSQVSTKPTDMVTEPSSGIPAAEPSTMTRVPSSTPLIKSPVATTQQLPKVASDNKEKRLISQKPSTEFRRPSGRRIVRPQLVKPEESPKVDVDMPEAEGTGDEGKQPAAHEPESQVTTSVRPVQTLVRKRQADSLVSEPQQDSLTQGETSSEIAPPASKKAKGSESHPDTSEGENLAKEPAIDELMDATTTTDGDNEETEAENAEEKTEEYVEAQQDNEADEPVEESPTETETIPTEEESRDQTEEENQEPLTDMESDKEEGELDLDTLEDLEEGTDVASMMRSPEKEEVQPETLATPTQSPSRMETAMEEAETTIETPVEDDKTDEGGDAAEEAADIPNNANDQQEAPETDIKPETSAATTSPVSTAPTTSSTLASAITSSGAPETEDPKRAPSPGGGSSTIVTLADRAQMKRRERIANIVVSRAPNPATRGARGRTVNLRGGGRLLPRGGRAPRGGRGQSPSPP

How the values were obtained:
Test in all cases: two-hybrid; NUA or ESD4 on the GAL4 AD (pGADT7), SnRK2s on the GAL4 BD (pGBKT7), co-transformed into S. cerevisiae AH109; growth on -Leu/-Trp/-His (with 3-AT) or -Leu/-Trp/-His/-Ade
[1] = biological target: T1, SnRK2.10 fused to the GAL4 BD (Arabidopsis thaliana) (UniProt Q9C958)
T1 sequence: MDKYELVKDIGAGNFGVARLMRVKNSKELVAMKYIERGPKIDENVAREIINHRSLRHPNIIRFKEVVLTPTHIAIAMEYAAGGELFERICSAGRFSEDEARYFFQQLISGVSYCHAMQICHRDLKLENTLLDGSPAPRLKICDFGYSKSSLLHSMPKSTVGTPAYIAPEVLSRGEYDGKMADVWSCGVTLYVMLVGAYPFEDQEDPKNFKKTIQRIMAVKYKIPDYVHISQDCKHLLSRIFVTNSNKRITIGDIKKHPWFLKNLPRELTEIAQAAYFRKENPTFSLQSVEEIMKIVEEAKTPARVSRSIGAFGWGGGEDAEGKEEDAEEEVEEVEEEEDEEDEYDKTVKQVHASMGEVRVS

[2] = biological target: T2, SnRK2.6/Open Stomata 1 (OST1) fused to the GAL4 BD (Arabidopsis thaliana) (UniProt Q940H6)
T2 sequence: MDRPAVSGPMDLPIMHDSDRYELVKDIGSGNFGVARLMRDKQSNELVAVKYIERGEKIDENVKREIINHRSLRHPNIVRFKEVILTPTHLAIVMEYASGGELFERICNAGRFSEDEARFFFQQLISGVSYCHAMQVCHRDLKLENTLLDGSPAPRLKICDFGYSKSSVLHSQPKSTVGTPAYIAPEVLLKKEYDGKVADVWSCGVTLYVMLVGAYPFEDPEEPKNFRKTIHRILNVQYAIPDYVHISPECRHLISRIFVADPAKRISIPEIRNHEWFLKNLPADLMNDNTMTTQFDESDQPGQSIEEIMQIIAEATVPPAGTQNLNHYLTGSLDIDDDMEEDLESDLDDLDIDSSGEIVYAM

[3] = biological target: T3, SnRK2.9 fused to the GAL4 BD (Arabidopsis thaliana) (UniProt O64812)
T3 sequence: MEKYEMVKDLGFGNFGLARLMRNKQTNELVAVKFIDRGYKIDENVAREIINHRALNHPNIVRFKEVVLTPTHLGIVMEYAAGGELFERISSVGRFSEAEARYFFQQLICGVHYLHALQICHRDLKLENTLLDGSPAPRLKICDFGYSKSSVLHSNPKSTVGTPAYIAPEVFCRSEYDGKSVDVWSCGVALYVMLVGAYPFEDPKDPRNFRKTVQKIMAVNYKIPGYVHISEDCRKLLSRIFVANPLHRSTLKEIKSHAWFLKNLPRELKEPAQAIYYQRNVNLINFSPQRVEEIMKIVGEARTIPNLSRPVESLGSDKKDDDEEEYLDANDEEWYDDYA

binding [1]: no binding
binding [2]: binds
binding [3]: no binding
Substance: NUCLEAR PORE ANCHOR (NUA) fused to the GAL4 AD (from UniProt A4GSN8 1-2093)
